# In PubChem BioAssay AID1347073 (National Center for Advancing Translational Sciences (NCATS), 2019):
# About 200 (0.44%) of roughly 45,000 compounds were called active. Roughly 7% stayed inconclusive and do not appear here. Calls follow the shape of the dose curve; as a rule, active = well fitted activation curve with a large enough effect; inconclusive = small, poorly fitted or top-dose-only effect; inactive = no such curve, though single readings can be large or run the other way. This is one part of the list.
# Test: qHTS of TDP-43 Inhibitors: NCGC Sytravon Library Screen; also: 0% is about no effect; nearly all actives have a fitted effect of over 55% in size
# Conditions: yeast TDP-43 toxicity rescue, BacTiter-Glo growth, 24 h; series mostly up to 46.1 µM; growth rescue (activation): at the top concentration
# Summary of the method: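 TDP-43-expressing yeast, pregrown in raffinose, seeded at OD600 0.02 in galactose medium with compound for 24 hr at 30 deg C. Growth read by BacTiter-Glo luminescence, so rescue of toxicity appears as activation.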
row,Compound,growth rescue (activation)
1,CCn1nc(C)c(/C=N/NC(=S)Nc2ccc(Cl)cc2Cl)c1C,inactive: 19%
2,CC(=O)Nc1c2c(nn1-c1ccccc1C)CS(=O)(=O)C2,inactive: 2.84%
3,CCOC(=O)c1sc(NC(=O)CC)nc1C,inactive: 27.4%
4,CCOc1cc(/C=N/n2c(C)nc3ccccc3c2=O)ccc1O,inactive: 11.8%
5,Cc1cc(NC(=O)CSCC(=O)N(c2ccc(F)cc2)C(C(=O)NC2CCCCC2)c2ccc(O)c(O)c2)no1 (stereo not drawn),inactive: -28.2%
6,C=CCNC(=O)CN1CCC(NC(=O)c2ccco2)CC1,inactive: -5.81%
7,COc1cc(OC)cc(C(=O)NNC(=O)C2CCCC2)c1,inactive: 7.52%
8,O=C(CSc1cccc2cccnc12)OCC(=O)c1ccc(Br)cc1,inactive: 0.411%
9,Cc1cc2ncn(CC(C)C)c2cc1C,inactive: 3.21%
10,O=C(N=Nc1c(O)[nH]c2ccccc12)c1cc(-c2ccc(F)cc2)n[nH]1,inactive: -5.56%
11,CCOC(=O)N1CCN(C(=O)CCCN2C(=O)CSc3nc(C)cc(C)c32)CC1,inactive: -5.06%
12,Cc1cccc(N(C(=O)c2snc(C(N)=O)c2N)C(C(=O)NC2CCCC2)c2ccc(C)o2)c1 (stereo not drawn),inactive: 8.87%
13,COc1ccc2cc(C(C)C(=O)N3CCC(C)CC3)ccc2c1 (stereo not drawn),inactive: 21.9%
14,COCCCNC(=O)Cn1cc(/C=C(\C#N)C(=O)N2CCN(c3ccccc3)CC2)c2ccccc21,inactive: 4.87%
15,O=c1oc2ccccc2c(Nc2ccc(F)cc2)c1[N+](=O)[O-],inactive: 3.44%
16,CC(=O)c1ccc(C(=O)N2CCCC(CCC(=O)N(C)CCc3ccccn3)C2)s1 (stereo not drawn),inactive: 4.94%
17,COC(=O)C(C)Sc1nc2c(c(=O)[nH]c(=O)n2C)n1CCC(C)C (stereo not drawn),inactive: -3.44%
18,O=C(Nc1ccc2c(c1)OCCO2)C1CCN(S(=O)(=O)c2ccccc2)CC1,inactive: -2.75%
19,COc1ccc(/C=C(\NC(=O)c2ccc(Cl)cc2)C(=O)NCCCn2ccnc2)cc1OC,inactive: -18.8%
20,O=C(NCCN1CCOCC1)C1CCN(S(=O)(=O)N2CCCC2)CC1,inactive: -3.52%
21,O=C(CN1C(=O)NC2(CCc3ccccc32)C1=O)NCC(F)(F)F (stereo not drawn),inactive: 4.39%
22,CC(Sc1nnc(COc2ccccc2)n1-c1ccccc1)C(=O)O (stereo not drawn),inactive: 0.0809%

row,Compound,growth rescue (activation)
1,Cc1ccc2nc(-c3ccc(F)cc3)nc(SCC(=O)NCC3CCCO3)c2c1 (stereo not drawn),inactive: 1.82%
2,CNS(=O)(=O)c1ccc(NC(=O)c2cc(-c3ccncc3)nc3ccc(Cl)cc23)cc1,inactive: 15.6%
3,O=C1C2CC=CCC2C(=O)N1c1ccc(NCCc2ccc(Cl)cc2)c([N+](=O)[O-])c1 (stereo not drawn),inactive: 2.89%
4,O=C(NN1C(=O)C2C3C=CC(C4CC34)C2C1=O)c1ccc(Cl)c(Cl)c1 (stereo not drawn),inactive: 14.6%
5,CCOc1ccccc1NC(=O)N1CCC(NC(=O)C2CCCCC2)CC1,inactive: 8.92%
6,O=C(NCc1ccccc1)c1cc[n+](CC(=O)c2cccs2)cc1,inactive: 21.9%
7,Cc1ccc(C)c(NC(=S)N(CCc2ccncc2)C(C)C)c1,inactive: 2.68%
8,N#CCCn1cc(/C=C2\NC(=S)N(c3ccccc3)C2=O)c(-c2ccc(F)cc2)n1,inactive: -1.35%
9,COc1ccc(CC(=O)N2CCN(c3ccc(F)cc3)CC2)cc1,inactive: 6.61%
10,Cc1c(Cl)cccc1NC(=O)C1CCCN(c2nnc(-n3c(C)ccc3C)s2)C1 (stereo not drawn),inactive: -0.426%
11,O=C(Cc1ccccc1)NC1(Cc2ccc(O)cc2)CCCCC1,inactive: -2.94%
12,COc1ccc(C(=O)Nc2ccc(O)cc2C(=O)O)cc1,inactive: 0.466%
13,COc1cc(CN2C(=S)NC(C)(C)CC2(C)O)cc(OC)c1 (stereo not drawn),inactive: 1.04%
14,COc1ccc(NC(=O)CSc2nc3cccnc3n2C)cc1,inactive: 7.76%
15,COCCNC(=S)N1CCOCC1,inactive: 15.1%
16,CC1=C(C(=O)Nc2cccc(F)c2)C(c2ccsc2)C2=C(CC(C)(C)CC2=O)N1 (stereo not drawn),inactive: 12.4%
17,CSCC(=O)N1CCCC(CO)(Cc2ccccc2C)C1 (stereo not drawn),inactive: -0.969%
18,O=C(NC1CCCCC1)C1CCN(C(=O)c2ccccc2Cl)CC1,inactive: 6.7%
19,CC(C)(C)C1c2[nH]c3ccccc3c2CCN1Cc1cccc(OCCO)c1 (stereo not drawn),inactive: 4.25%
20,CCOc1ccccc1N1CCN(CC(O)COCc2cccs2)CC1 (stereo not drawn),inactive: -3.6%
21,COCCNC(=O)/C(C#N)=C/c1ccc(N2CCOCC2)o1,inactive: 20.9%
22,Cc1nc(Nc2ccc(S(N)(=O)=O)cc2)sc1-c1ccccc1,inactive: -16%

row,Compound,growth rescue (activation)
1,Clc1nc2ccccc2nc1-c1ccccc1,inactive: 29.6%
2,N#Cc1ccc(/C=N/NC(=O)c2cccc(S(=O)(=O)N3CCOCC3)c2)cc1,inactive: -16%
3,CN(CCc1cnn(C)c1)Cc1cn(C)nc1-c1ccc2c(c1)OCCO2,inactive: 7.16%
4,CCOC(=O)CNC(=O)CSc1ccc(-c2nc3ccccc3[nH]2)cn1,inactive: -1.35%
5,Nn1c(SCC(=O)Nc2ccc3c(c2)CCC3)nnc1C1CC1,inactive: 12%
6,CCS(=O)(=O)c1ccc2oc(Nc3cccc(OC)c3)nc2c1,inactive: -0.488%
7,COc1ccc(NC(=O)CCNC(=O)c2ccccc2)cc1S(N)(=O)=O,inactive: 14.2%
8,Cc1cccc(C(=O)NC2CCN(C(=O)NCc3ccccc3)CC2)c1,inactive: 16.7%
9,O=C(CNc1cccc2ccccc12)N/N=C/c1ccc([N+](=O)[O-])cc1,inactive: 14.1%
10,CCc1nc2c(OCc3ccccc3)cccn2c1N(C)C(=O)c1ccc(OC)cc1,inactive: 14.9%
11,Cc1ccc(Cn2c(SCC(=O)N3CC(=O)Nc4ccccc43)nc3ccccc3c2=O)cc1,inactive: -9.84%
12,Cc1c(Cl)cccc1NC(=O)CNC(=O)Cc1n[nH]c(=O)c2ccccc12,inactive: 3.21%
13,CCOc1ccc(CNn2cnnc2)cc1,inactive: 0.129%
14,Cc1ccc(-c2csc3ncnc(NS(=O)(=O)c4ccc(Cl)cc4)c23)cc1,inactive: -1.88%
15,CCCNCC(=O)Nc1cccc(S(=O)(=O)NC2=NCCCCC2)c1,inactive: 1.32%
16,COc1ccc(-c2ccc(=O)n(Cc3cc(=O)n4ccccc4n3)n2)cc1,inactive: 15.8%
17,Cc1ccc(NC(=O)CSc2nnc(-c3ccccn3)n2N)c(Br)c1,inactive: 6.77%
18,CCC(C)Nc1nc(-c2c[nH]c3ccccc23)cs1 (stereo not drawn),inactive: 0.72%
19,Nc1c(-c2nc(-c3ccccc3)no2)nnn1CC(=O)Nc1ccccc1,inactive: 9.12%
20,COc1ccc(C(C)(C)C)cc1NC(=O)COC(=O)CN1C(=O)NC2(CCCCC2C)C1=O (stereo not drawn),inactive: 9.65%
21,Cc1cccnc1C(NC(=O)C1CCN(CCCOc2ccccc2)CC1)c1ccc(F)cc1 (stereo not drawn),inactive: 5.83%
22,O=C(CSc1ccc(Cl)cc1)Nc1ccc(-c2nc3ccccc3[nH]2)cc1,inactive: 19.2%

row,Compound,growth rescue (activation)
1,O=C(NCCCl)Nc1cccnc1Cl,inactive: -8.96%
2,CCN(CC(=O)NCc1ccc(Cl)cc1)C(=O)c1ccc2cc(OC)ccc2c1,inactive: 27.4%
3,COc1ccc(S(=O)(=O)N(CC(=O)N/N=C/c2ccc(C(=O)O)cc2)Cc2ccccc2)cc1OC,inactive: 10.1%
4,Cc1sc2ncnc(SCC(=O)N3CCCCC3)c2c1C,inactive: 11.8%
5,Cc1csc(NC(=O)CCC(=O)N(CC(=O)NC2CCCC2)c2ccccc2)n1,inactive: -0.098%
6,CCCn1c(SCC(=O)c2c(C)[nH]c(C)c2C(=O)OCC)nc2ccccc21,inactive: 15.9%
7,Cc1cc(NC(=O)CN2C(=O)NC(C)(c3ccccc3Cl)C2=O)no1 (stereo not drawn),inactive: -5.6%
8,Oc1ccc(Cl)cc1C1=NNC(c2cc(Br)cc3c2OCOC3)C1 (stereo not drawn),inactive: 7.11%
9,O=C(NC(Cc1c[nH]c2ccccc12)C(=O)OCC(=O)c1cccc2ccccc12)c1cccs1 (stereo not drawn),inactive: 12.1%
10,COC(CNC(=O)c1ccc2nc3ccccc3c(=O)n2c1)OC,inactive: 16.9%
11,CCN(CC)c1ccc(CNc2nc3ccccc3n2CC)cc1,inactive: -4.77%
12,O=C(O)CNC(=S)N(Cc1ccco1)Cc1ccccc1Cl,inactive: 5.8%
13,O=C(O)c1nn(Cc2csc(-c3ccccc3)n2)c(=O)c2ccccc12,inactive: -5.23%
14,O=C(c1ccoc1)N1CCC(CO)(CCc2ccccc2)CC1,inactive: 6.88%
15,Cc1cccc(-c2ocnc2C(=O)N2CCN(C(=O)c3cccs3)CC2)c1,inactive: 6.76%
16,O=C(NCC(=O)N1CCN(Cc2ccc3c(c2)OCO3)CC1)c1ccccc1F,inactive: 6.38%
17,Cc1ccc(C(=O)Nc2ccc(N3CCN(S(C)(=O)=O)CC3)cc2)cc1C,inactive: -15.1%
18,Cc1cccc(N(CC(=O)NCc2ccc(F)cc2)C(=O)c2ccco2)c1,inactive: 6.52%
19,COc1cccc(NC(=O)NC(C)C2CC3CCC2C3)c1 (stereo not drawn),inactive: 13.3%
20,COc1ccc(-n2nc(C(=O)NCC(=O)NCCCN3CCOCC3)c3ccccc3c2=O)cc1OC,inactive: 1.63%
21,O=C(Nc1ccc(N2CCCCC2)cc1)c1ccc([N+](=O)[O-])o1,inactive: -8.56%
22,Cc1cccc(Nc2c([N+](=O)[O-])c(=O)oc3ccccc23)c1,inactive: 2.14%

row,Compound,growth rescue (activation)
1,CCOC(=O)c1c(C)[nH]c(C(=O)COC(=O)CCSc2ccccc2)c1C,inactive: 25%
2,Cc1cc(C(O)c2ncc(-c3cccc(F)c3)[nH]2)ccc1F (stereo not drawn),inactive: 2.75%
3,O=C(O)COc1ccccc1/C=N/NC(=O)c1cc(-c2ccccc2)nc2ccccc12,inactive: 2.85%
4,COc1ccc(OC)c2c1CCC2=O,inactive: 4.19%
5,O=C(Nc1cccc(O)c1)c1cccc(NC(=O)c2cccs2)c1,inactive: 10%
6,Nc1nnc(SCC(=O)Nc2cccc(Cl)c2)s1,inactive: 30%
7,Cc1ccc(-c2nnc(SCC(=O)NC3CCCC3)n2N)cc1,inactive: 9.28%
8,O=[N+]([O-])c1ccc(N/N=C2/CCCCC2c2ccccn2)cc1 (stereo not drawn),inactive: 16.8%
9,Cc1nc2ccc(NC(=O)CSc3nnc(C)s3)cc2[nH]1,inactive: 6.35%
10,CC1CCC2(CC1)NC(=O)N(CC(=O)N1CCOCC1)C2=O (stereo not drawn),inactive: 13.2%
11,Cc1ccc(S(=O)(=O)N2CCCCC2)cc1NS(=O)(=O)c1ccccc1F,inactive: 4.01%
12,CCc1ccc2c(c1)C1(C(=O)N2)N2CCCC2C(C(=O)c2ccc3ccccc3c2)C12C(=O)Nc1ccccc12 (stereo not drawn),inactive: 15.4%
13,COCCNC(=S)N1CCC(C(=O)c2ccc3c(c2)OCCO3)CC1,inactive: 0.19%
14,CCOC(=O)c1c(NC(C)=O)sc2c(OCC(O)CN(CC)CC)c(Br)ccc12 (stereo not drawn),inactive: -20%
15,COc1ccc(CCNC(=O)Nc2nc(C(N)C3CCCCC3)cs2)cc1OC (stereo not drawn),inactive: -2.52%
16,CN(CCO)c1nc(N)c(C#N)c(CC#N)c1C#N,inactive: -62.6%
17,O=C(N/N=C/C=C\c1ccco1)c1cccs1,inactive: 6.12%
18,COc1ccc(/C=N/n2c(C)nc3sc(C)c(C)c3c2=O)cc1OC,inactive: 1.76%
19,CC1=C(C(=O)OCCOC(C)C)C(c2cccnc2)C2=C(CCCC2=O)N1 (stereo not drawn),inactive: 3.83%
20,O=C1CC(NCc2ccncc2)C(=O)N1c1ccccc1 (stereo not drawn),inactive: 13.4%
